# According to the supplement of paper PMC12217912:
# The list shows a part of the results. Sequences were assembled here from the parent chain. Inactive controls read about 0.05.
# B1: TEV protease; numbered along this chain (parent)
# chain: MGESLFKGPRDYNPISSSICHLTNESDGHTTSLYGIGFGPFIITNKHLFRRNNGTLVVQSLHGVFKVKDTTTLQQHLVDGRDMIIIRMPKDFPPFPQKLKFREPQREERICLVTTNFQTKSMSSMVSDTSCTFPSGDGIFWKHWIQTKDGQCGSPLVSTRDGFIVGIHSASNFTNTNNYFTSVPKNFMELLTNQEAQQWVSGWRLNADSVLWGGHKVFMVKPEEPFQPVKEATQL
# Variants of: B1
# Assay: raw area under fraction-flipped curve 0-4 h after induction (AUC4h, not background-subtracted), DNA-recorder readout of cleavage of the substrate (dimensionless); higher = more cleavage of the substrate by the protease variant
# Conditions: temperature: 34 °C; time window: 0-4 h after rhamnose induction
# Experimental: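 In vivo DNA recorder in E. coli TOP10(DE3) ΔrhaA at 34 °C. Each TEVp single-site mutant (parent TEVp 0) is paired with a single-site variant of the 7-mer TEVs (canonical ENLYFQ|S). The substrate sits between flexible linkers in a Bxb1-sfGFP-TEVs-SsrA fusion, so cleavage stabilises Bxb1 and speeds flipping of a recombination array, read by NGS. The value is the raw area under the fraction-flipped curve over 0-4 h after rhamnose induction (AUC4h), with ≥20 reads per time point. It is not background-subtracted; inactive controls average about 0.047.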
# 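Further: Bxb1 expression induced with 0.2% (w/v) L-rhamnose at OD600 near 0.5, cultures sampled hourly, flipped fraction per protease–substrate barcode pair counted by paired-end Illumina sequencing.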
Variant,area with substrate ANLYFQS,area with substrate CNLYFQS,area with substrate HNLYFQS,area with substrate INLYFQS,area with substrate NNLYFQS,area with substrate PNLYFQS,area with substrate SNLYFQS,area with substrate WNLYFQS,area with substrate FNLYFQS,area with substrate KNLYFQS,area with substrate LNLYFQS,area with substrate QNLYFQS,area with substrate RNLYFQS,area with substrate TNLYFQS,area with substrate VNLYFQS,area with substrate DNLYFQS,area with substrate YNLYFQS,area with substrate GNLYFQS,area with substrate MNLYFQS
S26G,0.0744,0.0601,0.062,0.0707,0.059,0.0579,0.0629,0.0704,,,,,,,,,,,
S26T,0.0237,0.0698,,0.0597,,0.0633,0.0596,0.0606,0.0635,0.0569,0.0613,0.0639,0.0663,0.0728,0.0666,,,,
D27T,0.0535,,0.058,0.0316,0.0667,0.0595,0.0502,,0.0447,0.0752,0.0637,0.066,0.056,,0.0575,0.0672,0.0599,,
G28A,0.0603,,0.0602,0.0569,0.0258,0.064,,0.0575,0.0749,0.0627,0.0582,,,0.0709,,0.0635,0.0593,0.0765,0.0625
G28E,0.0295,0.0639,0.0703,,,0.0522,,0.057,0.0497,0.0694,,,,0.0736,,,,,
G28N,0.0668,0.0613,0.058,,0.0601,0.0675,0.0668,0.0573,,0.0673,,0.0425,,0.132,,,,0.0533,0.0477
G28P,0.0597,,0.0509,0.0596,,,,0.0669,0.0596,,0.0582,0.0593,,0.0605,0.0752,0.0678,,0.0669,0.0503
